The record followed here is the supplement of paper PMC11417369.

Some of the results follow.

The test system of the experiment is PfAP2-HC AP2 domain (GST-tagged). Description: gcPBM binding intensity (ln(normalized median fluorescence intensity)); higher = stronger DNA binding. The essentials: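 The binding buffer was 1× PBS containing 1% milk, 0.2 mg/ml BSA, 0.5% salmon testes DNA and 0.03% Triton X-100. In it, GST-tagged P. falciparum DNA-binding domains expressed in E. coli were applied for 1 h to an Agilent 4 × 180k array of primer-extended double-stranded 36-bp intergenic genomic probes plus negative controls. Binding intensity, read with Alexa488 anti-GST antibody and a 488 nm scan, is the highest Masliner-normalised natural-log median intensity across replicate spots of either probe orientation.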
For the sequence “TACATCTGTATATAAACACACAACAAAAATGCTTAC [CACACA_site3814]”, the “gcPBM binding intensity (ln)” value worked out at 9.75. “AAATTAAATCCGCACGCACACACACCGATTAATAAA [CACACA_site9321]”: the “gcPBM binding intensity (ln)” value worked out at 10.2.

In the case of “AATATATAAATAGATACACACATACATACATACATA [CACACA_site4301]”, the “gcPBM binding intensity (ln)” value was 10.2.

In the case of “TTTTTTTTTTTAATATGTACGTAAAATAAGTTTAAA [XGTACX_site6495]”, the “gcPBM binding intensity (ln)” value is 9.27. With “TATTATATTTATTTATGTACACATATACTTAAATAA [XGTACX_site1355]”, the “gcPBM binding intensity (ln)” value is 9.69. Take “TGTAATACAGAAAAAAGTACTAAAAAGAAAAGGATT [XGTACX_site3176]”: the “gcPBM binding intensity (ln)” value was 9.82. Take ACACCTATAAATTAAGTGCATTTTTTTTGATGTTAT: the “gcPBM binding intensity (ln)” value turned out to be 9.71. Regarding “ACATTCAATCTACTGTGTACATATTAAACTTTGAAA [XGTACX_site2913]”, the “gcPBM binding intensity (ln)” value is 9.66. Take “TCCTTATAAAAATACACACAAACTTTAATTAAAACA [CACACA_site3730]”: the “gcPBM binding intensity (ln)” value amounted to 9.86. As for “ATATATATACAACAAGCATGCAGTAATTTTTTTTTT [TGCATGCA_site728]”, the “gcPBM binding intensity (ln)” value was determined as 9.81. Take “CTATAATAACATAACACACACATGTATTTATAGGTG [CACACA_site6298]”: the “gcPBM binding intensity (ln)” value was 9.87. Take “TATAAATAGATATATACACACTTGTGCAGAATATTA [CACACA_site7112]”: the “gcPBM binding intensity (ln)” value worked out at 9.79.

Take “CCCAGGTGCTCGTAACGTACTTACATCAAATATTAT [XGTACX_site4617]”: the “gcPBM binding intensity (ln)” value amounted to 9.68. “AGAAGTGTAAAAGTTACACACACAAACTTGTCATTT [CACACA_site4613]”: the “gcPBM binding intensity (ln)” value was 10.1. With “AGGCGTGAAATATACGTACACACATTATTTATATTT [CACACA_site2558]”, the “gcPBM binding intensity (ln)” value turned out to be 9.88.

With “AAATAAAAAGTAAAGCGTACAAATGATCAAATAATA [XGTACX_site7898]”, the “gcPBM binding intensity (ln)” value turned out to be 9.84. “TAATCAACAAAATCTACACACTAAAATGAAATATAA [CACACA_site3749]”: the “gcPBM binding intensity (ln)” value was found to be 9.76.

As for “AAATATTTATAAATTGCACACAAATAATAACATTAT [CACACA_site8737]”, the “gcPBM binding intensity (ln)” value amounted to 9.79. For the sequence “ATAATAATATATACATGTACATATATATATATATAT [XGTACX_site3455]”, the “gcPBM binding intensity (ln)” value was determined as 9.74. With “TAACATTACTCTTAACTCTTTTGGATACCAACTTAT [XGTACX_negctrl_site82]”, the “gcPBM binding intensity (ln)” value worked out at 9.79. Regarding “TAATTATTTTTATATTGTACAATATGTAAATATATA [XGTACX_site592]”, the “gcPBM binding intensity (ln)” value is 9.39. Turning to “TTTTTTGAATTTAAAAGTACAGGCTTTTACCAAATA [XGTACX_site1356]”, the “gcPBM binding intensity (ln)” value was 9.29.

Consider “AAAAAAAAAAAAAAAAGTACATACAACATTATGAAA [XGTACX_site207]”, for which the “gcPBM binding intensity (ln)” value amounted to 9.55.

For the sequence “AATTAAAAAAAAAAAAAAAAAAAAAAATGAAAAAAA [CACACA_negctrl_site1073]”, the “gcPBM binding intensity (ln)” value stood at 9.24. As to “ATAAATAAATAAATCTGTACATATGTATATGTATAT [XGTACX_site4537]”, the “gcPBM binding intensity (ln)” value amounted to 9.77. As to “ACTTAATTTTTTTTATGTACTTATTTAAAAAATTTT [XGTACX_site2712]”, the “gcPBM binding intensity (ln)” value is 9.56. In the case of “CTTAAAGGGAAAAATACACACATATAAATATTATGT [CACACA_site2225]”, the “gcPBM binding intensity (ln)” value was 9.77. The value for “TTAGTAGTATTATGTAGTACATAATTATCATATCAT [XGTACX_site817]” was 9.64; that for “AACCCAAAATAATTATGTACATATTTTTAAATATAT [XGTACX_site6487]” was 9.73.

Consider “ATAATCCTTGGACACACACACACACTAGTAAATAAA [CACACA_site4423]”, for which the “gcPBM binding intensity (ln)” value was 11.3. The value for “TTTGTGTATATAACAGTGCAATATTATAAATATAAA [GTGCAC_site9750]” was 9.65; that for “GCAAAGCACAAATATGCATGTAGATATAGAATAATG [TGCATGCA_site382]” was 9.59. As for “AAAAAAGAAAAAAAGTGTACAATATTTATTACATAT [XGTACX_site2277]”, the “gcPBM binding intensity (ln)” value was 9.67. “TTTTTTCTTTTTATGTGTACTTATTTTATTTAATAA [XGTACX_site1080]”: the “gcPBM binding intensity (ln)” value stood at 9.76. In the case of “TATATTTCATTATATTGTACAAAATATATATATTAT [XGTACX_site4644]”, the “gcPBM binding intensity (ln)” value is 9.52. With “CATTATATATATTACTAAAAATTTTACCCCTTAGCT [CACACA_negctrl_site302]”, the “gcPBM binding intensity (ln)” value is 9.41. As for “ATGTATATAAATATACGTACATAAATATAAGTATAG [XGTACX_site7155]”, the “gcPBM binding intensity (ln)” value was 9.67. The value for “ATACATGAATAAATATGTACACATATAAAAACATAT [XGTACX_site2740]” was 9.85; that for “AACACGCGCAGACACACACACACACGCACATATATA [CACACA_site7104]” was 10.9; that for “TTTTTTTTCTTTTTTTTAAGAAATAAATAAATAATT [XGTACX_negctrl_site137]” was 8.98. As to “TTTTAACAAAACTAAATAATCATATATATAAGATAT [GTGCAC_negctrl_site298]”, the “gcPBM binding intensity (ln)” value worked out at 9.26. With “CATTTCTATATAAGCACACACGTGGAATTTTTTTTT [CACACA_site5537]”, the “gcPBM binding intensity (ln)” value stood at 9.85.

Turning to “ATTATTTGAACAACAAAAAAAAAGAAAAGAAAAGAA [CACACA_negctrl_site1031]”, the “gcPBM binding intensity (ln)” value stood at 9.51. As to “AAATCGTAATATATTTGTACTTATTTGAAAAATCCA [XGTACX_site8141]”, the “gcPBM binding intensity (ln)” value amounted to 9.49.
